From the supplement of paper PMC8728848 come the findings set out here.

Assay in all cases: glycan array binding signal (z-score within array); higher = stronger binding
Holding throughout (settings): glycan notation: IUPAC condensed, linker removed

Assay [1] has as its target Gal(b1-3)[Neu5Ac(b2-6)]GalNAc. Summed up: (§1)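 The binding signal is a Z-score computed within each array and averaged over linkers. Arrays of the same protein sequence at different concentrations or buffers were also averaged together. Data originate from 3228 arrays in the Consortium for Functional Glycomics database, kept only where the protein sequence was available.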

The target of a further assay is Gal(b1-4)Gal. Summed up:
as §1

In assay [2] the target is Gal(b1-4)GalNAc(a1-3)[Fuc(a1-2)]Gal(b1-4)GlcNAc. Summed up:
as §1

Assay [3] addresses Gal(b1-4)GalNAc(b1-3)[Fuc(a1-2)]Gal(b1-4)GlcNAc. Summed up: as §1
For another assay, the target named is Gal(b1-4)Glc. An outline of the steps:
as §1

A further assay has as its target Gal(b1-4)Glc6S. Summed up:
as §1

A further assay addresses Gal(b1-4)GlcNAc. Summed up: as §1
The target of assay [4] is Gal(b1-4)GlcNAc(a1-6)Gal(b1-4)GlcNAc. Summed up:
as §1

A further assay deals with Gal(b1-4)GlcNAc(b1-2)Man. An outline of the steps: as §1
The target in assay [5] is Gal(b1-4)GlcNAc(b1-2)Man(a1-3)Man(b1-4)GlcNAc(b1-4)GlcNAc. Summed up:
as §1

Assay [6] has as its target Gal(b1-4)GlcNAc(b1-2)Man(a1-3)[Gal(b1-4)GlcNAc(b1-2)Man(a1-6)]Man(b1-4)GlcNAc(b1-4)GlcNAc. Summed up:
as §1

Assay [7] has as its target Gal(b1-4)GlcNAc(b1-2)Man(a1-3)[Gal(b1-4)GlcNAc(b1-2)Man(a1-6)]Man(b1-4)GlcNAc(b1-4)[Fuc(a1-6)]GlcNAc. Summed up:
as §1

Assay [8] has as its target Gal(b1-4)GlcNAc(b1-2)Man(a1-3)[Gal(b1-4)GlcNAc(b1-2)Man(a1-6)][Gal(b1-4)GlcNAc(b1-4)]Man(b1-4)GlcNAc(b1-4)[Fuc(a1-6)]GlcNAc. An outline of the steps:
as §1

Assay [9] has as its target Gal(b1-4)GlcNAc(b1-2)Man(a1-3)[Gal(b1-4)GlcNAc(b1-2)Man(a1-6)][GlcNAc(b1-4)]Man(b1-4)GlcNAc(b1-4)[Fuc(a1-6)]GlcNAc. Summed up:
as §1

Assay [10] addresses Gal(b1-4)GlcNAc(b1-2)Man(a1-3)[GlcNAc(b1-2)Man(a1-6)]Man(b1-4)GlcNAc(b1-4)GlcNAc. An outline of the steps:
as §1

The target of assay [11] is Gal(b1-4)GlcNAc(b1-2)Man(a1-3)[GlcNAc(b1-4)][Gal(b1-4)GlcNAc(b1-2)Man(a1-6)]Man(b1-4)GlcNAc(b1-4)GlcNAc. An outline of the steps: as §1
In assay [12] the target is Gal(b1-4)GlcNAc(b1-2)Man(a1-3)[Man(a1-6)]Man(b1-4)GlcNAc(b1-4)GlcNAc. Summed up:
as §1

For assay [13], the target named is Gal(b1-4)GlcNAc(b1-2)Man(a1-6)Man(b1-4)GlcNAc(b1-4)GlcNAc. Summed up:
as §1

The target in assay [14] is Gal(b1-4)GlcNAc(b1-2)Man(a1-6)[GlcNAc(b1-2)Man(a1-3)]Man(b1-4)GlcNAc(b1-4)GlcNAc. Summed up:
as §1

Assay [15] addresses Gal(b1-4)GlcNAc(b1-2)Man(a1-6)[Man(a1-3)]Man(b1-4)GlcNAc(b1-4)GlcNAc. Summed up: as §1
Assay [16] has as its target Gal(b1-4)GlcNAc(b1-2)[Gal(b1-4)GlcNAc(b1-4)]Man(a1-3)[Gal(b1-4)GlcNAc(b1-2)Man(a1-6)]Man(b1-4)GlcNAc(b1-4)GlcNAc. An outline of the steps: as §1
Assay [17] deals with Gal(b1-4)GlcNAc(b1-2)[Gal(b1-4)GlcNAc(b1-4)]Man(a1-3)[Gal(b1-4)GlcNAc(b1-2)[Gal(b1-4)GlcNAc(b1-6)]Man(a1-6)]Man(b1-4)GlcNAc(b1-4)GlcNAc. Summed up:
as §1

This is one part of the list.

B1: rMpL (Macrolepiota procera) (protein)
chain: MSTQVSSGRTYKITNVIAGTVIDLSGEDNKSIIGYPYHSGKNQQWTFNWTGKAWTLRSASSGSYLGIEGTPAGGTRLVAVNDPFEWHIWRDEANENAFRIFVPFTNYNLDLSGYGDTTPGTPVQLWWTWEGLHQTWTIDRP
With B1, the “glycan array binding signal (z-score)” value is -0.327 in assay [1]; -0.278 with Gal(b1-4)Gal; -0.148 in assay [2]; 0.063 in [3]; -0.195 with Gal(b1-4)Glc; -0.052 with Gal(b1-4)Glc6S. Moreover, the “glycan array binding signal (z-score)” value with Gal(b1-4)GlcNAc is 0.051; in assay [4], 9.59; with Gal(b1-4)GlcNAc(b1-2)Man it was -0.283; in assay [5], 0.072; in [6] it was 0.854; in [7] it was 0.657. The “glycan array binding signal (z-score)” value in assay [8] was 2.02; in [9], 0.777; in assay [10], 0.046; in [11], 0.488; in assay [12], 0.109; in assay [13], -0.176. Also, the “glycan array binding signal (z-score)” value in assay [14] is -0.158; in assay [15] it was 0.139; in assay [16], 2.34; in assay [17], 2.77.
